Over roughly 33,000 sequences, “E-score (-0.5 to 0.5)” has its median near -0.041; the highest 2% begin near 0.37. Some of the results follow.

The values that follow come from the supplement of paper PMC3334620.

The target of this assay is T1, Ecm22 (UniProt Q05958).
T1 sequence: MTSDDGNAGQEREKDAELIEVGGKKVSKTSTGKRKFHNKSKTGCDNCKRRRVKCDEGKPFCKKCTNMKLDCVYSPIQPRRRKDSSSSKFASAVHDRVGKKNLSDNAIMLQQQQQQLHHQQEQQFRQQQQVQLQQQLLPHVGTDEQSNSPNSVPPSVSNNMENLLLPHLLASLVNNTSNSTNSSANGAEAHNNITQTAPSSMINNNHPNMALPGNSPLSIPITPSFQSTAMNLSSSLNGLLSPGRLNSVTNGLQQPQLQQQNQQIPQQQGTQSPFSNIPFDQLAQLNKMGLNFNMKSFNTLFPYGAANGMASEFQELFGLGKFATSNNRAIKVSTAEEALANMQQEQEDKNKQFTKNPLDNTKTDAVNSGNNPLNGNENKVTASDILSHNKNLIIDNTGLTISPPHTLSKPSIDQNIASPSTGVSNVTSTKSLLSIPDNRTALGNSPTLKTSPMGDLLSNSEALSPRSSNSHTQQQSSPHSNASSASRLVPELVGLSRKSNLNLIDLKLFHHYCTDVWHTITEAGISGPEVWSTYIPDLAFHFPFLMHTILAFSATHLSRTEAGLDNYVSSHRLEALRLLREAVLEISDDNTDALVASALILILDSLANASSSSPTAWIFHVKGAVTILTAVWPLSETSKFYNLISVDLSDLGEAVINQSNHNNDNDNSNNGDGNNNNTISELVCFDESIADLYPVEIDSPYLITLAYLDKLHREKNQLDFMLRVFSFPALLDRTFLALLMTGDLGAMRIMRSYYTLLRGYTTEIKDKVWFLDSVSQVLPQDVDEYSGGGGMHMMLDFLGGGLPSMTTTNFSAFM
Briefly: PBM E-score (8-mer binding enrichment) (E-score (-0.5 to 0.5)); higher = stronger / more preferred TF binding; most listed sequences are background and not binding sites. To be noted: protein concentration: 200 nM; construct: GST-full length. Here is the method:
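Universal 'all 10-mer' protein binding microarrays (Agilent AMADID 015681) probed with GST-tagged S. cerevisiae TFs (full-length or DBD) made by in vitro transcription/translation (PURExpress), about 100-200 nM. Bound TF was detected with fluorescent anti-GST. Each ungapped 8-mer (which stands for itself and its reverse complement) is scored by the PBM enrichment score (E-score), a modified Wilcoxon-Mann-Whitney statistic from -0.5 to +0.5, computed with the Universal PBM Analysis Suite. Scale: above 0.35 generally sequence-specific binding.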
Turning to CGATATAC, the “PBM E-score” value was determined as 0.312. As for GGTCCCTA, the “PBM E-score” value is -0.161. Regarding ACCGGAGA, the “PBM E-score” value was 0.0128. Regarding CTGTCGTA, the “PBM E-score” value is 0.453. In the case of GCCCTCAA, the “PBM E-score” value is -0.275. In the case of CCGAAGAC, the “PBM E-score” value amounted to 0.0182. Regarding CGCGTTGA, the “PBM E-score” value is 0.0778.

For CTCTAGCC, the “PBM E-score” value is -0.105. With ATCCAGGC the figure was -0.295; with GGAAGCCC, -0.0852.

Turning to AAACACTA, the “PBM E-score” value came to 0.13. Regarding GTATACCA, the “PBM E-score” value stood at 0.15. AAAAGGGA: the “PBM E-score” value was -0.0769. With CGGCTAAA the figure was 0.0996; with GACGCGTC, 0.0262. Turning to AGGAAGTA, the “PBM E-score” value was -0.1. With CTCCCCGC the figure was 0.116.

Take AAAAAGAT: the “PBM E-score” value was -0.141.

As for CCTAACGA, the “PBM E-score” value was determined as 0.195. The value for AACATGCG was 0.136; that for GTTCCGTA was 0.389; that for ACTAGAAG was -0.242. Take AGGATGCG: the “PBM E-score” value was determined as 0.0907.

As for CGCGTTGC, the “PBM E-score” value came out at 0.0744. Turning to CTTGACCA, the “PBM E-score” value was -0.318.

With AGTTTTAC, the “PBM E-score” value was found to be 0.164. Take ATGGCACC: the “PBM E-score” value was -0.0523. The value for CGGGTGCC was -0.052.

Regarding AGAATTCG, the “PBM E-score” value was 0.0024. TGTTTGAA: the “PBM E-score” value was -0.065. In the case of GGGGGTCA, the “PBM E-score” value was -0.176. In the case of ACGTGGTG, the “PBM E-score” value is -0.072. For the sequence CAAGTTCC, the “PBM E-score” value was -0.0984. The value for AGATAGAG was -0.0841; that for GAACCAGA was -0.126; that for GGCCCCGA was -0.0915. On to CAGTTGAA, for which the “PBM E-score” value is -0.0431. As for ACGCATCA, the “PBM E-score” value is 0.0479. In the case of ACTGTAAC, the “PBM E-score” value stood at 0.04.

Turning to CGGTCAAG, the “PBM E-score” value was determined as 0.0356. AAGTAGCG: the “PBM E-score” value was -0.121. Turning to CATTGCGC, the “PBM E-score” value is -0.0449. With GGCACCAC, the “PBM E-score” value is -0.143. Regarding AATTCCCT, the “PBM E-score” value is -0.164.

Regarding TAAGTATA, the “PBM E-score” value is 0.237. Turning to ATCACCGA, the “PBM E-score” value was determined as 0.0324. On to TCCCCAGA, for which the “PBM E-score” value was -0.236. Regarding ATAGACCA, the “PBM E-score” value was 0.0034.

For the sequence GCGAGTAA, the “PBM E-score” value stood at 0.114. With GTGCACTA the figure was 0.00219. On to CACTAGTC, for which the “PBM E-score” value is -0.301. Take TCAGAACA: the “PBM E-score” value is -0.0575. In the case of GCTGTCAA, the “PBM E-score” value is 0.0292.

On to AAGGAAGG, for which the “PBM E-score” value was -0.0599. For the sequence CCCACGGG, the “PBM E-score” value is -0.185. On to CGGTAAGA, for which the “PBM E-score” value was determined as 0.0089. The value for AAGTGAGT was -0.154; that for ACCAGTGC was -0.00812; that for CAAGCTCC was -0.319. The value for AACTGTGC was -0.293. Take ACGCCCAA: the “PBM E-score” value was -0.153. With CGGCTGGA the figure was -0.076.

AGTAATAC: the “PBM E-score” value amounted to 0.0343. Consider ACCTCTAG, for which the “PBM E-score” value was -0.137.

Take AAAGTAAC: the “PBM E-score” value was -0.0745. Consider GGCGCAAC, for which the “PBM E-score” value turned out to be 0.0334. AGTGAATA: the “PBM E-score” value was -0.104. In the case of CGACAGTA, the “PBM E-score” value stood at 0.0736. On to AGGCGCCC, for which the “PBM E-score” value is -0.244. For the sequence AACACACC, the “PBM E-score” value is 0.0383.

Regarding ATATTGCC, the “PBM E-score” value is -0.0775. In the case of ACAAAGTA, the “PBM E-score” value is 0.199. As to AGTACATC, the “PBM E-score” value came out at 0.0703. With CCCACAAA the figure was -0.0896; with CGGAGAAG, -0.219; with CTTACGGA, 0.0416. On to AAATAGTG, for which the “PBM E-score” value is -0.00077. Take AACTCTCA: the “PBM E-score” value is -0.108. Consider CTCCTGGC, for which the “PBM E-score” value is -0.125. For AGTAAGAT, the “PBM E-score” value was -0.075. Regarding GACTGGAA, the “PBM E-score” value is -0.103. CAGTGGGA: the “PBM E-score” value was -0.171. Turning to CATCAAAC, the “PBM E-score” value is -0.0412. With GGGTTGGA the figure was -0.0518. Turning to GATCTACA, the “PBM E-score” value is 0.011. For ACAGACCT, the “PBM E-score” value was 0.0802.
